Experimental data: US20240182596A1, “ANTI-NAPI2B ANTIBODIES AND ANTIBODY-DRUG-CONJUGATES BASED THEREON, THERAPEUTIC METHODS AND USES THEREOF” (Tubulis GmbH, priority 2022, published 2024)

T1: HEK293 cells expressing human Napi2b (SLC34A2) (Homo sapiens, UniProt O95436)
T1 construct: expressed in transfected cells; host or cells: HEK293
T1 sequence (O95436 1-690): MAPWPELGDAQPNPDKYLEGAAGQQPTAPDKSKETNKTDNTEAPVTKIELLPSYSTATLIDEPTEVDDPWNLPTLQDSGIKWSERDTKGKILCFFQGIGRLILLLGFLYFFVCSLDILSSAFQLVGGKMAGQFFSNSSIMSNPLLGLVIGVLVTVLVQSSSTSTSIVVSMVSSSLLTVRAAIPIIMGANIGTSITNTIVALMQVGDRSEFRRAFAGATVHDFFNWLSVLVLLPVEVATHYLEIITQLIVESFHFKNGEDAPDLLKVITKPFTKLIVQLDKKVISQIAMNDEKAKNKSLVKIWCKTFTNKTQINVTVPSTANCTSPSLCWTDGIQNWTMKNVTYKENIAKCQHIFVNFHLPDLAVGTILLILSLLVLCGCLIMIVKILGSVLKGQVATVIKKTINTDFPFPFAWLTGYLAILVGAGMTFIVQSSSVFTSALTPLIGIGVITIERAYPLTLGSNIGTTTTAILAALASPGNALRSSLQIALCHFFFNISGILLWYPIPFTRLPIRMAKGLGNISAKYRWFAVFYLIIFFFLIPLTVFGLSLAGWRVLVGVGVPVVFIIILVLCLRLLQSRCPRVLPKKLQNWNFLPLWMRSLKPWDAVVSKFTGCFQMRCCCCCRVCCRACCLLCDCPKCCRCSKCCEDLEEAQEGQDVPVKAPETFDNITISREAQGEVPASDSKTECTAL

B1: AV25: humanized anti-NaPi2b IgG1 antibody, light chain SEQ ID NO: 6, heavy chain SEQ ID NO: 7, Fc-silenced (LALA) (antibody)
heavy: EVQLVQSGAEVVKPGASVKMSCKASGYTFTGYIIHWVKQAPGQGLEWIGAIYPGSGATSYKQKFRGRATLTADTSTSTVYMELSSLRSEDSAVYYCARGETARATFAYWGQGTLVTVSS[human IgG1 constant region with changes skipped]
light: DIQMTQSPSSLSASVGDRVTITCSASQDIGNFLNWYQQKPGKTVKVLIYYASSLYSGVPSRFSGSGSGTDYTLTISSLQPEDFATYYCQQYSKLPLTFGQGTKLELKRTVAAPSVFIFPPSDEQLKSGTASVVCLLNNFYPREAKVQWKVDNALQSGNSQESVTEQDSKDSTYSLSSTLTLSKADYEKHKVYACEVTHQGLSSPVTKSFNRGEC
modifications: Heavy chain without a signal seqeunce; Light chain without a signal seqeunce
B2: AV25-P5(PEG24)-VC-PAB-Exatecan DAR 8: AV25 antibody conjugated to P5(PEG24)-VC-PAB-Exatecan, DAR8 (conjugate)
heavy: EVQLVQSGAEVVKPGASVKMSCKASGYTFTGYIIHWVKQAPGQGLEWIGAIYPGSGATSYKQKFRGRATLTADTSTSTVYMELSSLRSEDSAVYYCARGETARATFAYWGQGTLVTVSS[human IgG1 constant region with changes skipped]
light: B1 light

How the values were obtained:
[1] = target: T1, HEK293 cells expressing human Napi2b (SLC34A2); test: Binding to human NaPi2b evaluated by flow cytometry (specificity); settings: 0.002 to 200 nM
Experimental: To determine concentration-dependent binding, HEK293 cells transiently or stably expressing human Napi2a-, Napi2b- and Napi2c-mCherry were incubated with antibodies or ADCs in concentrations ranging from 0.002 to 200 nM, stained with an Alexa-dye-labeled anti-human IgG H+L secondary antibody (Thermo Fisher Scientific), and analyzed by flow cytometry. Mean fluorescence intensity (MFI) ratios were normalized to the non-specific binding control. The assay was performed in duplicates and data points were analyzed by a non-linear regression using a one-site specific binding model using Prism 9 software.

OVCAR-3 and HCC-78 = test: Calcein release-based ADCC assay with human NK cells; type: cell-based; settings: 15 μg/ml, NK:target 4:1, 4 h
Experimental: • and AV25-P5(PEG24)-VC-PAB-Exatecan DAR8 vs the isotypes and an anti-MHC-I positive control (Invivogen) was analyzed, which is mediated after interaction with FcγRIIIa (CD16). For the Calcein release-based antibody-dependent cellular cytotoxicity (ADCC) assay, peripheral blood mononuclear cells (PBMCs) were isolated from healthy donor buffy coats (purchased from DONAS GmbH) using LeucoSep tubes (Greiner Bio-One) and Histopaque®-1077 (density 1.077 g/ml, Merck) density gradient according to standard protocols. Afterwards, natural killer (NK) cells were MACS (magnetic cell separation)-sorted using human NK cell isolation kit (Miltenyi Biotec) by negative selection according to the manufacturer's instructions yielding untouched human primary NK cells. Napi2b-positive target cells OVCAR-3 and HCC-78 (both Napi2b^high) were stained with 16 μM Calcein AM (Thermo Fisher Scientific). 40.000 NK cells and 10.000 Calcein-stained target cells were incubated at a 4:1 ratio in the presence of 15 μg/ml antibodies or ADCs. Cells permeabilized with 2.5% Triton X 100 (Merck) served as a positive control for maximum Calcein release. After 4 h, supernatants were transferred to a flat black non-binding 96-well plate (Greiner Bio-One) and fluorescence was measured at 485/535 nM via the Infinite M200 Pro reader (Tecan). The percent specific killing was calculated by dividing the Calcein released by antibody-mediated killing minus background Calcein release (NKs+targets) from Calcein released by Triton X-permeabilized cells (maximum killing) minus background Calcein release (targets only). Graphs show means of n=2±SEM.
Co-cultures of healthy donor (HD)-derived NK cells and calcein-stained target-positive tumor cells (OVCAR-3 and HCC-78), in a 4:1 ratio, were incubated with 15 μg/ml of indicated antibodies or ADCs (anti-MHC-I antibody served as positive control). The percentage of specific killing was calculated by deviding the calcein released by antibody-mediated cell killing from calcein released by Triton X-permeabilized cells (maximum killing). Graphs show means of n=2±SEM.

[2] = 0.2 mg/ml in at least 80% serum of different species, 37° C., up to 7 days
Experimental: Samples for day 0 were directly processed further.
Afterwards, the supernatant was removed and the resin washed 2 times with 1 mL PBS-T. Following by incubation for 15 minutes with 10 μl 100 mM Glycin buffer pH 2.5 at room temperature. This solution was rebuffered to PBS by using 75 μL Zeba™ Spin Desalting Columns with 7K MWCO (Thermo Fisher Scientific, USA). The samples were processed further for MS-measurements, as described above. The Drug-to-Antibody ratio (DAR) was calculated from the MS intensities of the light chain adducts conjugated to 0 or 1 and heavy chain adducts conjugated to 0-3 molecules of P5(PEG24)-VC-PAB-Exatecan.

[3] = test system: Lu7700 non-small cell lung cancer (NSCLC) model; test: Dose response PDX study Lu7700; type: in vivo, NMRI nu/nu mice; settings: 5, 3 or 1 mg/kg once at day 0, i.v.
[4] = test system: 0v6668 ovarian cancer model; test: Dose response PDX study Ov6668 (efficacy, bodyweight); type: in vivo, NMRI nu/nu mice; settings: for Tumor response: single injection

Molecule	Binding (MFI ratio) [1]	Binding (MFI ratio) ([1]; listed as AV25 mAb)	ADCC activity (specific killing) (OVCAR-3 and HCC-78)	Change in Drug-to-Antibody Ratio (DAR) / payload loss in serum [2]	Efficacy compared to vehicle control [3]	Bodyweight ([4]; 5, 3 and 1 mg/kg once at day 0)	Tumor response ([4]; 1 mg/kg)	Tumor response ([4]; 5 and 3 mg/kg)
B1	only shows binding to HEK293 cells overexpressing Napi2b	bind specifically to NaPi2b	did not induce ADCC or only in very low amounts	–	–	–	–	–
B2	bind specifically to NaPi2b	–	did not induce ADCC or only in very low amounts	No change in the Drug-to-Antibody Ratio (DAR)	highest and long-lasting efficacy	No reduction in bodyweight	strong tumor regression which was followed by partial tumor re-growth after day 40	Complete tumor remission
